Assay results from US20230012428A1 (JIANGSU HENGRUI MEDICINE, published 2023).
Positions count from the first letter of the chain named. Read-outs that look alike come from different tables or passages of the source. Values belong to the binder of their own block, whether it stands above or below them.

Columns and labels:
[1] = molecular target: T1, Human CD47-his (CD47-ECD-His) (human, UniProt Q08722 in part, limits assumed); experiment: ELISA, CD47-his coated on plate
T1 construct: also called hCD47; free human CD47 protein

[2] = molecular target: T2, Cyno CD47-his (cyno, UniProt A0A2K5X523 19-139); experiment: ELISA, CD47-his coated on plate
T2 construct: extracellular domain; not shown: His tag

[3] = molecular target: T1, Human CD47-his (CD47-ECD-His); experiment: SPR (Biacore T200), binder captured on Protein A chip, antigen in flow
[4] = molecular target: T2, Cyno CD47-his; experiment: as above
[5] = molecular target: T1, Human CD47-his (CD47-ECD-His); experiment: ELISA, CD47-his coated on plate; remark: listed apart in the source
[6] = molecular target: T2, Cyno CD47-his; experiment: ELISA, CD47-his coated on plate; remark: listed apart in the source

T1 sequence (Q08722 19-139 limits assumed): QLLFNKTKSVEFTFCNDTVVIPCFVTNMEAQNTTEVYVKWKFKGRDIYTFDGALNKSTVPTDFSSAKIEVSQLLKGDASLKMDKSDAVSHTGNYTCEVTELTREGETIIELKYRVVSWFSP

EC50 [1]: 0.0248 µg/mL | EC50 [2]: 0.0154 µg/mL | Kd [3]: 0.551 nM | Kd [4]: 0.974 nM | EC50 [5]: 0.0255 µg/mL | EC50 [6]: 0.012 µg/mL
B1: S58-Fc (Fc fusion)
chain: EEELQMIQPEKLLLVTVGETATLHCTVTSLLPVGPVLWFRGVGPGRELIYMSGRGHFPRVTTVSDLTKRNNMDFSIRISSITPADVGTYYCVKFRKGSPEDVEFKSGPGTEMALGAKPS[human IgG4 Fc with S228P (EU numbers) not given here]
notes: also called SIRPγ protein S58-Fc

Kd [3]: 0.524 nM | Kd [4]: 0.893 nM | EC50 [5]: 0.0228 µg/mL | EC50 [6]: 0.0114 µg/mL
B2: S37-Fc (Fc fusion)
chain: B1 chain with M72K

EC50 [1]: 0.0302 µg/mL | EC50 [2]: 0.293 µg/mL | Kd [3]: 4.15 nM | Kd [4]: 10.4 nM
B3: TTI-621 (Fc fusion)
chain: not shown
notes: Control protein
